Article PMC4336329 (PLoS ONE, 2015)
The whole screen tested about 310,000 compounds, of which about 14,000 (4.5%) showed an effect of 50% or more. The effect is printed as a negative number. The list shows a part of the results.

biological target: human ether-à-go-go-related gene (hERG) potassium channel (human, UniProt Q12809); experiment: primary screen, population patch clamp on CHO cells stably expressing hERG
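Further: peak tail current of the secondary pulse compared with the same well before compound.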

human ether-à-go-go-related gene (hERG) potassium channel, sequence (Q12809 whole entry, looked up): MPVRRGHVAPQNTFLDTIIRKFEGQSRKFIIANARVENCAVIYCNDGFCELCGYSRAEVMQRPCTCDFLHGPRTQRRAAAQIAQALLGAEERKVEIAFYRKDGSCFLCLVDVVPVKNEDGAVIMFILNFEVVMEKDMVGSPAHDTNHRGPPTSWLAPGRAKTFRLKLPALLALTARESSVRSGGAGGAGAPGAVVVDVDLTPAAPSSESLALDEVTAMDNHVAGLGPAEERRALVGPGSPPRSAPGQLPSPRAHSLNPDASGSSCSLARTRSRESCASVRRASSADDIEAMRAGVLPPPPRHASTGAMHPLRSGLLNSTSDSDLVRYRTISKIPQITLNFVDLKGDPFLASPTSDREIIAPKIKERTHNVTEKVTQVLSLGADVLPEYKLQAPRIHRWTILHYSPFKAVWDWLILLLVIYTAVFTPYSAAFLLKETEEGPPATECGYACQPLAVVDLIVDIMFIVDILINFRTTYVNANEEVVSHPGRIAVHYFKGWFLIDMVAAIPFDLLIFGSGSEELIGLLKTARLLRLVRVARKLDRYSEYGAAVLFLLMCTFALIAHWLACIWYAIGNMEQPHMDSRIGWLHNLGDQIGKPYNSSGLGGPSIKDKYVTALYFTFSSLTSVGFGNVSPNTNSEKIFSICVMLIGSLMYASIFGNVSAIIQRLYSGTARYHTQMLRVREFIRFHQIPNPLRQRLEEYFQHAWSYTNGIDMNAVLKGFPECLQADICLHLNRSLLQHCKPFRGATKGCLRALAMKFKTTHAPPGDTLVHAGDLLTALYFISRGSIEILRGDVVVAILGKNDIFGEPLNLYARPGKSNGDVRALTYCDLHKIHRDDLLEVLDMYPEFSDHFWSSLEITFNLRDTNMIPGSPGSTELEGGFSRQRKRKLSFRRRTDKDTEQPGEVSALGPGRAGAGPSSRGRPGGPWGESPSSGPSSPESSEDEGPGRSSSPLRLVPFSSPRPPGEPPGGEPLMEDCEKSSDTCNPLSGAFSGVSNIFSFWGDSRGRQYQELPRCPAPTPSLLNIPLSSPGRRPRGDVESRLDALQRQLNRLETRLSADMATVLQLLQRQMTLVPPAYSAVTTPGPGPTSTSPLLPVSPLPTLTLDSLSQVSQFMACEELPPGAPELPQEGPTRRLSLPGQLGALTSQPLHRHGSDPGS

SMILES | hERG current change (%, negative = inhibition) at 10uM
CCN(CC)CC(O)Cn1c2ccccc2c2ccccc21 (stereo not shown) | -16%
CC1(OC(=O)CCc2ccccc2)C(=O)C=C2C=C(c3ccc(C#N)cc3)N(Cc3ccco3)C=C2C1=O (stereo not shown) | -38.9%
CC1CCCCN1CCn1c(=S)[nH]c2ncccc2c1=O (stereo not shown) | -5.69%
COc1cc(/C=C(\C#N)C(=O)NC2CCCCC2)ccc1OCc1ccc(C(=O)O)cc1 | 26.3%
O=[N+]([O-])c1ccc(-c2ccc(/C=N/Nc3nc(NCc4ccccc4)nc(N4CCOCC4)n3)o2)cc1 | 2.75%
CC(=O)N1CCn2c3ccc(C)cc3c3cccc1c32 | -0.647%
CCCC(=O)Nc1nc(-c2ccccc2)ns1 | -9.53%
Cc1ccc(S(=O)(=O)N(C)Cc2ccc(C(=O)NN=C3C4CC5CC(C4)CC3C5)cc2)cc1 | 0.806%
COc1c(C)cccc1C(=O)Nc1cc(-c2nn3c(C)nnc3s2)ccc1C | 3.05%
O=C1CCN(C(=O)Nc2ccccc2)N1 | 19.7%
COc1ccc2c(C)cc(SCC(=O)NCC3CCCO3)nc2c1 (stereo not shown) | -17.9%
CCOc1[nH]n(-c2ccc(Cl)cc2)c(=O)c1C=NCc1cccnc1 | -42.1%
COC(=O)c1c(C)nc2nonc2c1N | 16.8%
CCOC(=O)c1sc(NC(=O)CSc2ncn(-c3ccccc3)n2)nc1C | 7.23%
COc1ccc(NCC(=O)Nc2ccccc2C#N)cc1Cl | -3.28%
CC(=O)NCC(=O)OCC(=O)Nc1ccc(C(C)=O)cc1 | 4.36%
O=C(NCCO)/C(=C\c1cccs1)NC(=O)c1cccs1 | 18.7%
Cc1ccc(-n2c(SCC(=O)N3CCOCC3)nnc2-c2cccnc2)cc1C | -16.9%
COc1cccc(/C=N/NC(=O)c2nnn(-c3nonc3N)c2C(C)C)c1OCc1ccc(F)cc1 | 1.64%
O=C(COC(=O)c1cccnc1Cl)c1ccc(OC(F)F)cc1 | -23.4%
O=C(NCC1COc2ccccc2O1)C1CCCN(S(=O)(=O)c2cnc[nH]2)C1 (stereo not shown) | 7.84%
CC(C)CCNC(=O)c1nn(Cc2ccccc2)c(=O)c2ccccc12 | 5.59%

SMILES | hERG current change (%, negative = inhibition) at 10uM
COc1ccc(S(=O)(=O)Nc2cccc(SC)c2)cc1OC | -0.907%
O=C(N/N=C/c1cccnc1)c1cc(O)c(O)c(O)c1 | 26.3%
O=C(c1ccc2c3c(cccc13)CC2)C1CCCN(C(=O)c2cc[n+]([O-])cc2)C1 (stereo not shown) | 7.06%
Cc1ccc(-n2nnnc2-c2cnc3ccc(Cl)cc3c2-c2ccccc2)cc1 | -16.7%
S=C(NCc1ccco1)NC1CCCc2ccccc21 (stereo not shown) | -4.65%
COc1ccc(C(=O)OCC(=O)NC(C)CCc2ccccc2)cc1 (stereo not shown) | 2.23%
O=C(NC(=S)N1CCCCC1c1cccnc1)c1ccc(Br)cc1 (stereo not shown) | -45.6%
COC(=O)c1c(C)cc(O)cc1O | 19.3%
Cc1noc(NS(=O)(=O)c2ccc(N)cc2)c1C | 13.4%
CCC(=O)Nc1nc(C)nc(C)c1C(C)=O | 13.3%
Cc1nnc(SCc2nc(N)nc(Nc3ccccc3)n2)s1 | -12.3%
O=C(Nc1nc2ccccc2n1Cc1ccc(Cl)cc1)c1ccco1 | 5.47%
NC(=O)CC(NC(=O)Cc1ccc(Cl)cc1)c1ccc(N2CCC(Cc3ccccc3)CC2)c([N+](=O)[O-])c1 (stereo not shown) | 17.7%
Br.CC1(C)OC(c2ccccc2)=C/C(=C/C=Nc2ccccc2)O1 | -12.9%
COc1cc(NC(=O)CN2C(=O)c3ccccc3C2=O)c(C(=O)O)cc1OC | 13.8%
CCn1c(Cc2ccccc2)nnc1SCc1cccc(C(=O)O)c1 | -2.1%
OCC[N+]12CCC(CC1)C(C(O)(c1ccccc1)c1ccccc1)C2 (stereo not shown) | 15.7%
CC(=O)NC(Cc1ccccc1)C(=O)O (stereo not shown) | 19.7%
O=C(CCCC(=O)N(c1ccc(F)cc1)C(C(=O)NC1CCCC1)c1ccc(O)cc1)Nc1ccccn1 (stereo not shown) | -5.27%
CCOc1ccc(NC(=O)CCSc2ccc3ccccc3n2)cc1 | -5.77%
CCOc1cc(C(=S)N2CCOCC2)ccc1OS(=O)(=O)c1ccc(NC(C)=O)cc1 | -2.37%
